# Experimental data published in paper PMC4336329 (PLoS ONE, 2015).
# Screen size: about 310,000 compounds; about 14,000 (4.5%) showed an effect of 50% or more. Effects have a minus sign here. This is one part of the list.
# Target: human ether-à-go-go-related gene (hERG) potassium channel (human, UniProt Q12809)
# Assay: primary screen, population patch clamp on CHO cells stably expressing hERG
# 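Also: peak tail current of the secondary pulse compared with the same well before compound.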
# Chain of human ether-à-go-go-related gene (hERG) potassium channel (Q12809 whole entry, looked up): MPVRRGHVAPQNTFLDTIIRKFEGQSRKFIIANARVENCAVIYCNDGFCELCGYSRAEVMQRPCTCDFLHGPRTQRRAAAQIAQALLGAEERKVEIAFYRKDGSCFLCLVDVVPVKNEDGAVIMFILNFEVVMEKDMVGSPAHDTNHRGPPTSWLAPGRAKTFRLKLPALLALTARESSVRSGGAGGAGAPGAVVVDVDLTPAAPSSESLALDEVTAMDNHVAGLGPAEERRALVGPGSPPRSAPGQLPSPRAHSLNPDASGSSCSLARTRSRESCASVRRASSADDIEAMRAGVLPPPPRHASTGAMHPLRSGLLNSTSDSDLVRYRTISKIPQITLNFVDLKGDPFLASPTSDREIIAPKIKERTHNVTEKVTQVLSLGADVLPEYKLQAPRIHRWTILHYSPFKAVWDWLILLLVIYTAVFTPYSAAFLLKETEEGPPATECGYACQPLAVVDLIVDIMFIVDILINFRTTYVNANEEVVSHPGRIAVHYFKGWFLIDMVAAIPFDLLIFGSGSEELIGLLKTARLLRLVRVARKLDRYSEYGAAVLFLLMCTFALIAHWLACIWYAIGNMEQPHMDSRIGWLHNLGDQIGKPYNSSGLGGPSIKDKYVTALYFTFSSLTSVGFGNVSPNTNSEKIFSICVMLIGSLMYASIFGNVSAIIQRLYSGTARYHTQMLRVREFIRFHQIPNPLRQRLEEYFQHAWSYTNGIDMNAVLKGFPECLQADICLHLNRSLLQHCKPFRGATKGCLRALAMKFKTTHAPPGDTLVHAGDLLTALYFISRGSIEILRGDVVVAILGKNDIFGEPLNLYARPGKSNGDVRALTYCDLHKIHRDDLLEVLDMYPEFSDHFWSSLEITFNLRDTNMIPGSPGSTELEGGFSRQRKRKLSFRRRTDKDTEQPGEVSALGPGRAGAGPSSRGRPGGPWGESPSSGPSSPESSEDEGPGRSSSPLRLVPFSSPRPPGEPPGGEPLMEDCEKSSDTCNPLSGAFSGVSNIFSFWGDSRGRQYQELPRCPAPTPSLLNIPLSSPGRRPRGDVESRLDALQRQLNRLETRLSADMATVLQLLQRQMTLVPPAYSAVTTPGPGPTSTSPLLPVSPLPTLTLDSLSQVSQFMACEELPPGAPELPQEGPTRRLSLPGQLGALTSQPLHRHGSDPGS
row,SMILES,"hERG current change (%, negative = inhibition) at 10uM [%]"
1,Cl.c1ccc(Cn2nnnc2C(c2cccs2)N2CCOCC2)cc1 (stereo not drawn),8.91
2,Cn1ccs/c1=N\C(=O)Nc1cccc(Cl)c1,0.433
3,COc1ccc(-c2cc(-c3cc(OC)ccc3O)[nH]n2)cc1,16
4,CC(/C=N/NC(=O)Cn1cnc2c1c(=O)n(C)c(=O)n2C)=C\c1ccccc1,4.35
5,OCCC1CN(Cc2cccn2-c2ncccn2)CCN1Cc1ccccc1 (stereo not drawn),-64.2
6,COCCCNCCOCCOc1ccccc1-c1ccccc1.O=C(O)C(=O)O,-29.4
7,Nc1ccc(O)c(-c2nc3ccccc3s2)c1,2.48
8,Cn1c(SCC(=O)NC2CCCCC2)nnc1-c1ccc(N)cc1,13.9
9,CC(C)CNC(=O)CSc1nnc(-c2ccccn2)n1Cc1ccccc1,-4.82
10,CCOc1ccc(C2C(C#N)=C(N)Oc3nc[nH]c(=O)c32)cc1 (stereo not drawn),12.1
11,Cc1cc(CN(C)C(=O)c2ccc(OC3CCN(Cc4ccccn4)CC3)cc2)on1,-37.7
12,COc1ccc(CNc2nc3ccccc3n2Cc2ccc(C)cc2)cc1OC,-19.8
13,CCN(CC(=O)NCc1ccc(F)cc1)CC(=O)Nc1ccccc1-c1ccccc1,-16
14,CCc1nc(N2CCN(Cc3ccc4c(c3)OCO4)CC2)c2oc3ccccc3c2n1.Cl,-5.03
15,COc1cc(CCC(=O)N2CCN(S(=O)(=O)c3ccc(C)c(C)c3)CC2)cc(OC)c1OC,8.91
16,CCOC(=O)c1c(-c2ccc(F)cc2)csc1NC(=O)C1CCCO1 (stereo not drawn),-5.36
17,Cc1cc(C(=O)N(C)Cc2ccc(Br)cc2)no1,-7.52
18,COc1ccc(OCCn2ccnc2C)cc1.O=C(O)C(=O)O,-0.197
19,CCc1cc2c(=O)c(-c3nc4ccccc4n3C)c(C)oc2c(CN2CCN(CCO)CC2)c1O,4.5
20,COc1cc(/C=N/NC(=O)C2CCN(CC(O)COCc3ccccc3)CC2)cc(OC)c1OC (stereo not drawn),-71.7
21,C=C1C2[C@H](OC(C)=O)[C@@H]3CC(=O)[C@]4(C)OC[C@@]3(C)[C@@]4(O)[C@@H](OC(C)=O)[C@H](OC(C)=O)[C@@]2(COC(=O)c2ccccc2)[C@@H](OC(C)=O)C[C@@H]1O (stereo partly drawn),5.03

row,SMILES,"hERG current change (%, negative = inhibition) at 10uM [%]"
1,COc1ccc(CCNC(C(=O)Nc2cc(C)cc(C)c2)c2ccccc2)cc1 (stereo not drawn),9.1
2,CCOC(=O)N1CCN(CC(O)c2c[nH]c3ccc(OC)cc23)CC1 (stereo not drawn),8.02
3,NC(=S)NNc1cccc(Cl)c1,8.03
4,COc1ccc(NC(=O)c2cccc(S(=O)(=O)N3CCN(C)CC3)c2)c(OC)c1,-4.23
5,Cc1ccc(C2(O)C(=O)c3ccccc3C2=O)c(O)c1C,-3.83
6,O=C(CSc1nc(C2CC2)nc2ccccc12)Nc1ccccc1,-1.27
7,O=C(Nc1ccccc1)Nc1ccc(NC(=O)c2ccccc2O)cc1,13.6
8,COCCCNC(=S)N1CCN(c2nc(-c3cccc(OC)c3)cs2)CC1,10.7
9,COc1ccc(N(CC(=O)Nc2cc(OC)c(OC)cc2C(=O)O)S(=O)(=O)c2c(C)noc2C)cc1,15.9
10,CC1=C(C(=O)OCc2ccccc2)C(c2cccnc2)n2nnnc2N1 (stereo not drawn),-6.94
11,O=C(CCNC(=O)c1ccc(Cl)cc1)NCCCN1CCOCC1,4.31
12,CN(C(=O)CSc1nnc(-c2ccc(F)cc2)c2ccccc12)C1CCS(=O)(=O)C1 (stereo not drawn),-46.2
13,Cc1ccc(-c2ccc(=O)n(CCC(=O)NCc3ccccn3)n2)cc1,-61
14,CCOC(=O)CNC(=O)N(CCOC)CC1CCCN(C2Cc3ccccc3C2)C1 (stereo not drawn),-28.5
15,COC(=O)COc1ccc(/C=C2\C(=O)NC(=S)N(c3ccc(C)cc3)C2=O)cc1OC,16
16,CN(C)S(=O)(=O)c1cc(NC(=O)[C@H](Cc2ccccc2)N2C(=O)c3ccccc3C2=O)ccc1Cl,5.08
17,CC(C)(CC(=O)O)CC(=O)NCc1c(Cl)cccc1Oc1ccccc1,20.1
18,O=C(CCCOc1ccc(Cl)cc1Cl)Nc1cccnc1,-12.9
19,O=C(Nc1ccc(N2CCCCC2)cc1)c1cccnc1Cl,13.4
20,CC1CCCCN1C(=O)CCS(=O)(=O)Cc1ccccc1 (stereo not drawn),-3.41
21,CCC(=O)OC1(c2ccccc2)CCN(C)CC1C.Cl (stereo not drawn),7

row,SMILES,"hERG current change (%, negative = inhibition) at 10uM [%]"
1,Cc1ccccc1C(=O)N1CCC(n2nccc2NC(=O)CCOc2ccccc2)CC1,-6.91
2,O=C(NC1CCS(=O)(=O)C1)c1cccc(S(=O)(=O)N2CCOCC2)c1 (stereo not drawn),-3.62
3,COCC(=O)NC1CCN(CC(=O)Nc2ccccc2[N+](=O)[O-])CC1,-5.61
4,CC(C)(CO)NC(=O)CCCOc1ccc(Cl)cc1Cl,-2.49
5,Cc1onc(-c2c(F)cccc2Cl)c1C(=O)NC(=S)NC1CCS(=O)(=O)C1 (stereo not drawn),0.498
6,CC1Cc2ccccc2N1C(=O)CNc1ccccc1N1CCCCC1 (stereo not drawn),2.49
7,Cc1ccc(-c2nc(NC(=O)CSc3nnnn3-c3ccccc3)ns2)cc1,8.81
8,O=C(O)c1cccc(-c2ccc(/C=C3/SC(=Nc4ccccc4)N(Cc4cccnc4)C3=O)o2)c1,13.1
9,CCc1sc(C(=O)N2CCC3(CC2)OCCO3)cc1Br,-7.08
10,CN1C(=O)c2cccc(NC(=O)CCc3ccccc3)c2C1=O,-19.6
11,CCOc1nc(C)nc(NC(=O)NS(=O)(=O)c2ccccc2Cl)n1,-11.9
12,N#Cc1ccsc1NC(=O)COC(=O)c1cc2ccccc2cc1O,-0.704
13,COc1ccc(NC(=O)NCc2ccc3c(c2)OCO3)c(OC)c1,11.5
14,Cc1ccc(Cl)c(OCC(=O)Nc2ccccc2N2CCCCC2)c1,5.15
15,COc1ccc(NC(=O)c2ccc(-n3cnnn3)cc2)c([N+](=O)[O-])c1,4.47
16,COc1ccc(-c2cc(C)nc(SCc3cccc(C(=O)O)c3)n2)cc1,-19.1
17,COc1c(C(=O)NCCSC(C)(C)C)ccc2ccccc12,-13.9
18,FC(F)(F)c1ccccc1N1CC1c1ccncc1 (stereo not drawn),13.3
19,COc1ccc2[nH]c(C(=O)N3CCN(Cc4ccccc4)CC3)cc2c1OC,-9.06
20,CC1(c2ccc([N+](=O)[O-])cc2)Nc2ccccc2S1 (stereo not drawn),-40.8
21,COc1ccc(CNS(=O)(=O)c2ccc3c(c2)CCN3C(=O)C2CCC2)cc1,12.6

row,SMILES,"hERG current change (%, negative = inhibition) at 10uM [%]"
1,O=C(CN(c1ccccn1)S(=O)(=O)c1ccccc1)N/N=C/c1cccc([N+](=O)[O-])c1,-7.62
2,O=C(Cc1cccs1)NCc1cccs1,-12
3,CCOc1ccc(NC(=O)CN(C)C(=O)c2ccc(C)c(S(=O)(=O)N3CCCCC3)c2)cc1OCC,-2.83
4,Cc1ccc(C)c(NC(=O)CSc2nc3c(oc4ccccc43)c(=O)n2-c2ccccc2)c1,10.7
5,COc1ccc(OC)c(CNC(=O)C2CCCN(S(=O)(=O)N3CCC(C)CC3)C2)c1 (stereo not drawn),-17.4
6,O=C(/C=C(O)/C=C/c1ccc(O)cc1)/C=C/c1ccc(O)cc1,18.7
7,N#Cc1ccc(NC(=O)C2CC(c3ccc(F)cc3)=NO2)cc1 (stereo not drawn),-14.1
8,CCN1CCN(C2=C(NS(=O)(=O)c3ccc(NC(C)=O)cc3)C(=O)c3ccccc3C2=O)CC1,7.39
9,CCOc1cc(C(=O)NCc2ccc3c(c2)OCO3)cc(OCC)c1OCC,18.4
10,O=C(COC(=O)Cc1c[nH]c2ccccc12)Nc1c(Cl)cccc1C(F)(F)F,-5.24
11,CCOc1cc(S(=O)(=O)N2CCN(C(=O)c3ccco3)CC2)ccc1F,-39.7
12,O=C(COC(=O)c1cnc(Cl)c(Cl)c1)NCCC1=CCCCC1,15.1
13,COc1ccc(N2CCN(C(c3cccs3)C(C)NC(=O)C(=O)N3CCCC3)CC2)cc1 (stereo not drawn),-13.9
14,C/C(CC(=O)NCc1ccco1)=N\NC(=O)COc1ccc(Cl)cc1Cl,-65.6
15,CCN(/N=C/c1ccccc1)c1cc(=O)n(C)c(=O)[nH]1,-8.13
16,C[C@@H]1NC(=O)c2cc([N+](=O)[O-])cc(I)c2OCC[C@@H](C(N)=O)NC(=O)[C@H](CCCCN)NC1=O,16.4
17,COc1ccc(-c2cc([C@H]3[C@@H]4C=CCC[C@@]4(C)C(=O)N3Cc3ccccc3)ccc2F)cc1,8.38
18,Cc1cccc(NS(=O)(=O)c2cc(OCC(N)=O)c(C)cc2Cl)c1,-7.38
19,Cc1cc(C)c(C(=O)N2CCCC(Nc3ccc(C)c(C)c3)C2)o1 (stereo not drawn),5.21
20,Cc1cc(C)nc(N/N=C/c2ccccc2OCc2ccc(Cl)cc2)n1,-3.39
21,Cc1cc(C)cc(NC(=O)Nc2ccc(N3CCCCC3)cc2)c1,19.5
